From PubChem BioAssay AID1508623 (National Center for Advancing Translational Sciences (NCATS), 2021)
The campaign covered roughly 48,000 compounds. About 450 (0.94%) were called active. Another 19% or so got no clear call; they are omitted. Calls come from the whole dose curve; as a rule, active = well fitted inhibition curve with a large enough effect; inconclusive = small, poorly fitted or top-dose-only effect; inactive = no such curve, though single readings can be large or run the other way. Some of the results follow.

assay: Primary qHTS for Identification of Small Molecule Inhibitors of Huntingtin Promoter Activity; conditions: HEK293 HTT promoter firefly luciferase reporter (activity 0% = vehicle and -100% = no light), 24 h; series mostly up to 57.5 µM; activity change, negative = inhibition: at the top concentration; note: nearly all actives have a fitted effect of over 50% in size
Outline: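 Quantitative HTS used concentration series of up to 57.5 uM final on HEK293 luciferase reporter cells, 24 h at 37 degrees C. Readout was Dual-Glo firefly luminescence.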

Activity change, negative = inhibition, inactive:
NC(=O)CSc1nnnn1-c1cccc(O)c1 -11.8%
Cn1c(SCc2ccccc2Cl)nc2c([nH]c3ccccc32)c1=O -6.55%
COc1cccc(CNS(=O)(=O)c2ccc(-c3cc(C(F)(F)F)on3)s2)c1 -6.39%
CCOC(=O)c1ccc(N2C(=O)Cc3cc(OCC)c(OCC)cc3C2c2ccccc2)cc1 (configuration not stated) -10.2% [at 11.5 µM]
CCOc1ccc(NS(=O)(=O)c2ccc3[nH]cc(C(=O)N4CCCCCC4)c(=O)c3c2)cc1 -1.69%
COc1ccc(Cc2nc3ccc(C(=O)NCCCN4CCN(C)CC4)cc3o2)cc1 -24.2%
Cc1ccccc1-c1nc(SCC(=O)NCC2CCCO2)c2c(=O)n(C)c(=O)n(C)c2n1 (configuration not stated) 13.1%
COc1ccc(N2CCN(C(=O)c3sc4nc5n(c(=O)c4c3C)CCC5)CC2)cc1 -2.61%
COCCNC(=O)c1ccc2c(=O)n(CCOC)c(SCC(=O)c3c[nH]c4ccccc34)nc2c1 -23.9%
Cc1cccc(CCNC(=O)CCc2c(C)nc3ncnn3c2C)c1 4.65%
Cc1ccccc1C(=O)OCc1cc(=O)n2c(C)csc2n1 14.6%
CCc1nn(CC(=O)NCc2ccc(OC)c(OC)c2)c(=O)c2cc3sc(C)cc3n12 -7.58%
CCOC(=O)c1c(NC(=O)c2cc3nc(-c4ccccc4)cc(C(F)(F)F)n3n2)sc2c1CCC(C)C2 (configuration not stated) -16.2%
CCCNC(=O)c1cnc2sc(N3CCCCCC3)nn2c1=O 19.9%
CCOc1ccc(C(=O)Nc2ccccc2OCc2cc(=O)n3ccccc3n2)cc1 -6.14%
COc1ccccc1OCCCCn1c(-c2ccc(Cl)cc2)nc2ccccc2c1=O -9.22%
CCOC(=O)N1CCC(=C2c3ccc(Cl)cc3CCc3cccnc32)CC1 9.07%
CCOC(=O)Cn1c(=O)n(-c2ccccc2OC)c2nc(-c3ccccc3F)nc(C(N)=O)c21 -14.8%
CN(C)c1ccc(C(=O)Nc2cccc(-c3nc4cccnc4s3)c2)cc1 -0.225%
Cc1ccc(CCNC(=O)c2cc(C)nc3c2c(C)nn3-c2ccc(C)cc2)cc1 -6.1%
COc1cccc(Cn2c(SCC(=O)N(C)c3ccccc3)nc3ccccc32)c1 -2.28%
COc1cccc2cc(-c3csc(-c4ccc(Cl)cc4)n3)c(=O)oc12 -5.15%
Cc1ccccc1CNC(=O)c1ccc(CSc2nc3cccnc3n2Cc2ccccc2)cc1 -30.3%
COC(=O)c1ccc(Cn2c(SCc3ccccc3)nc3ccncc32)cc1 -2.06%
CCc1ccc(-n2nc(C)c3c(C(=O)Nc4cc(C)c(Cl)cc4OC)cc(C)nc32)cc1 -3.44%
CCc1ccc(-c2nn(CC(=O)NCc3ccccc3)c3c2cnc2ccc(C)cc23)cc1 0%
CC(C)c1ccc(NC(=O)CCS(=O)(=O)c2cccc3nonc23)cc1 -13.9%
Cc1ccc(CCNC(=O)c2ccc(CNS(=O)(=O)c3ccccc3)cc2)cc1 -33%
O=C(CN1CCSc2ccccc21)N1CCCCC1 -12.6%
CCOc1ccccc1NC(=O)Cn1c(=O)n(-c2ccc(F)cc2)c(=O)c2c3c(sc21)CN(C(C)=O)CC3 -5.77%
CC(=O)Nc1ccc(NC(=O)c2cc3sccc3n2Cc2ccc(Cl)cc2)cc1 -23.6%
COc1cc(NC(=O)Cn2cnc3c2c(=O)n(C)c(=O)n3C)c(OC)cc1Cl -5.62%
CCOC(=O)c1c(NC(=O)/C(C#N)=C/c2ccccc2)sc2c1CCC2 -6.86%
Cc1cc(C)cc(NC(=O)Nc2ccccc2OCc2cc(=O)n3ccccc3n2)c1 12.3%
CCOc1ccc(NC(=O)c2c(NC(=O)c3ccccc3F)sc3c2CCC3)cc1 -16.6% [at 11.5 µM]
CCOc1cc(/C=C(\C#N)C(=O)Nc2ccc(C)cc2)ccc1OCc1cc(=O)n2nc(CC)sc2n1 -5.16%
COc1cccc2c1Oc1ncccc1N(C(=O)CCC(=O)NC(C)C)C2 -5.82%
CCc1c(C)sc2c1CCN(C(=O)Nc1cc(Cl)c(OC)cc1OC)C2c1ccccc1 (configuration not stated) -31.6%
COc1ccc2c(c1)CC(C(=O)NCCCN1CCN(c3ccccc3F)CC1)CO2 (configuration not stated) -23.9%
C#CCn1cnc2c(cnn2-c2ccc(F)cc2)c1=O -16.3%
CCC(=O)N1CCc2cc(Br)cc(S(=O)(=O)CCC(=O)Nc3ccc(C)c(F)c3)c21 -5.09%
O=C(NOCC1CC1)c1ccc(F)c(F)c1Nc1ccc(I)cc1Cl -20.2%
CCn1c(C)c(C)c2cc(C(=O)NCc3ccc(OC)cc3OC)ccc21 1.8%
CCN(CC)S(=O)(=O)c1ccc(NC(=O)c2c(C)oc3ncnc(N4CCOCC4)c23)cc1 -8.84%
COc1ccc(Cl)cc1NC(=O)c1cnc(SC)nc1-c1ccccc1 -22.2%
Cc1ccccc1NC(=O)C(=O)NCC1(c2ccccc2)CCCC1 -14.4%
CCN1CCN(c2ncc3c(n2)CCN(Cc2sccc2C)C3)CC1 -13.6%
O=C(CSc1nnc2scc(-c3ccc(Cl)cc3)n12)Nc1cccc(C(F)(F)F)c1 -24.3%
COc1cc(NC(=O)CC(C)S(=O)(=O)c2ccc3c(c2)CCN3C(C)=O)cc(OC)c1OC (configuration not stated) -6.44%
Cc1ccc(NC(=O)CN(C)S(=O)(=O)c2cccc3cccnc23)cc1F -21.7%
COc1ccc(Cl)cc1Nc1nc2ccc(C(=O)c3ccccc3)cc2n2cnnc12 44.1%
CN(CC(=O)Nc1ccc(Cl)cc1F)S(=O)(=O)c1ccc2c(c1)n(C)c(=O)c(=O)n2C -20%
CCc1ccc(C(c2ccccc2)c2c[nH]c3ccc(C)cc23)s1 (configuration not stated) 11.6%
Cc1sc2ncn(CC(=O)N3CCN(c4ccccc4)CC3)c(=O)c2c1S(=O)(=O)N1CCN(c2ncccn2)CC1 -13%
CC(C(=O)O)c1ccc(CC2CCCC2=O)cc1 (configuration not stated) -2.54%
Nc1ncnc2c1ncn2Cc1c(F)cccc1Cl -5.34%
Cc1ccc(NC(=O)c2cccc(N3CCCS3(=O)=O)c2)cc1C 51.9%
Cc1ccc(NC(=O)[C@H]2O[C@@H]3OC(C)(C)O[C@@H]3[C@H]3OC(C)(C)O[C@H]32)cc1F -0.072%
CC(C(=O)Nc1ccccc1C(F)(F)F)n1nnc2sc3c(c2c1=O)CCCC3 (configuration not stated) -14.7%
CCS(=O)(=O)NCC(c1ccco1)N1CCN(c2ccccc2)CC1 (configuration not stated) -2.19%
CSc1nc(Nc2ccc(C)cc2)c(C#N)c(-c2ccccc2)n1 -12.9%
Cc1ccc(CSc2ncc(Cl)c(C(=O)Nc3nc4ccc(C)cc4s3)n2)cc1 0.872%
Oc1c(C(c2ccccc2)N2CCN(c3cccc(Cl)c3)CC2)sc2nc(-c3ccco3)nn12 (configuration not stated) -24.5%
O=c1c(=O)n(-c2ccccc2)ccn1Cc1cccc(C(F)(F)F)c1 -26.3%
Cc1ccc(NC(=O)c2cc3nc(-c4ccc5c(c4)OCO5)cc(C(F)(F)F)n3n2)cc1Cl 1.23%
COc1ccccc1CNS(=O)(=O)c1cc(Br)cc2c1N(C(C)=O)C(C)C2 (configuration not stated) -23.7%
O=C1COc2ccc(-c3cc(-c4ccc(F)cc4)c4c(n3)-c3cc(Cl)ccc3OC4)cc2N1 -8.12%
Cc1c(C(=O)Nc2ccccc2Cl)sc2ncnc(N(C)C3CCCCC3)c12 -18.6%
COc1cc(Cl)c(NC(=O)c2cc(CN3CCCC3)on2)c(OC)c1 -8%
Cc1ccc(N2CC(c3nnc(Cc4ccc(F)cc4)o3)CC2=O)cc1 (configuration not stated) -11.8%
COc1ccc(Cn2ccnc2SCC(=O)NC2CCCC2)cc1 -24%
CC(CCc1ccccc1)NC(=O)Cn1c(=O)nc(-c2ccccc2F)c2cc(Cl)ccc21 (configuration not stated) -21.6%
Cc1oc(-c2ccccc2F)nc1CSCC(=O)NCc1ccccc1 -23%
COc1ccc2c(c1)CC(C(=O)Nc1cccc(C)c1C)CO2 (configuration not stated) -19.4%
COC(=O)c1ccc(NS(=O)(=O)c2c(C)nc3sccn3c2=O)cc1 -29.1%
CCOC(=O)Cn1c(=O)n(C2CCCCC2)c2nc(-c3ccc(OCC)cc3)nc(C(N)=O)c21 -9.47%
COc1ccc(C2CC(=O)c3cnc4c(-c5ccccc5)c(C)nn4c3C2)cc1OC (configuration not stated) -28.2%
Cc1c(-c2cccc(NC(=O)c3ccc(F)c(F)c3)c2)nc2ncccn12 -2.18%
Cc1nn(C)c2c1c(C(F)(F)F)cc(=O)n2C(C)C(=O)NCCc1ccc(Cl)cc1 (configuration not stated) 0%
Cc1ccc(Oc2coc3cc(OCC(=O)NC4CCCCC4)ccc3c2=O)cc1 -16.4%
N#Cc1ccc(C(=O)Nc2ccccc2-c2nc3ccccc3s2)c(F)c1 10.4%
COc1ccc(OCc2ccc(-c3nc(C#N)c(NCc4ccccc4)o3)o2)cc1 24.3%
CNS(=O)(=O)c1ccc(NC(=O)c2cnn3c(C(F)F)cc(-c4ccccc4)nc23)cc1 -2.53%
CCOC(=O)c1cnc2c(Cl)c(Cl)ccc2c1NCCN1CCOCC1 -15.6%
O=c1c(-c2ccc(O)cc2)coc2cc(O[C@@H]3O[C@H](CO)[C@H](O)[C@H](O)[C@H]3O)ccc12 28.3%
CCOc1ccc(C2C(C(=O)OC)=C(C)NC3=C2C(=O)c2ccccc23)cc1OC (configuration not stated) -16.2%
O=C(Nc1ccc(F)cc1Cl)C1CCN(c2ncnc3c2nc2n3CCCCC2)CC1 -12%
CN(C1CCCCC1)S(=O)(=O)c1ccc2c(c1)c(=O)c(C(=O)NCc1ccccc1Cl)cn2C -7.18% [at 11.5 µM]
c1ccc(C(O[C@H]2CCCN(CCc3ccc4c(c3)OCO4)C2)c2ccccc2)cc1 0.752%
Cc1ccc2onc(CNC(=O)Nc3ccccc3C#N)c2c1 -10.3%
COc1cccc(CNC(=O)CCc2c(C)nc3c(c2C)c(=O)n(C)c(=O)n3C)c1 -3.29%
CCc1ccccc1NC(=O)CSc1ncccc1C(=O)O -5.72%
COc1ccc(Nc2ncnc3c2c(-c2ccccc2)cn3-c2ccc(C)c(Cl)c2)cc1OC 0.741%
Cc1cccc(NC(=O)CSC2=Nc3ccccc3C3=NC(CCC(=O)NCc4ccc(F)cc4)C(=O)N23)c1 (configuration not stated) -10.6%
CC(=O)c1ccc(NS(=O)(=O)c2cnc(N)nc2)cc1 3.49%
CC(=O)c1cccc(Nc2ncnc3c2cnn3C)c1 -8.13%
CCOc1ccccc1NC(=O)Cc1csc(COc2cccc(C)c2)n1 -24.7%
